Source: patent publication US8895568B2, “Compositions comprising substituted pteridines as agrochemicals” (Dow AgroSciences LLC, priority 2009, dated 2014)
The name of at least one read-out is uncertain.

Key:
[1] = test system: Puccinia recondita tritici; assay: Leaf Rust of Wheat (PUCCRT), foliar spray, percent disease control; type: in vivo
Leptosphaeria nodorum = assay: Glume Blotch of Wheat (LEPTNO), foliar spray, percent disease control; type: in vivo

Structure (SMILES) | PUCCRT percent control ([1]; in vivo) | LEPTNO percent control (Leptosphaeria nodorum; in vivo) | PUCCRT percent control ([1]; foliar spray) | LEPTNO percent control (Leptosphaeria nodorum; foliar spray)
Cc1nc2ncnc(NCCc3ccc(Oc4cc(C(F)(F)F)ccn4)cc3)c2nc1C [Compound 162] | *** (*** = 80-100 percent control) | *** (*** = 80-100 percent control) | – | –
Cc1nc2ncnc(NCCc3ccc(Oc4ncc(C(F)(F)F)cc4F)cc3)c2nc1C [Compound 163] | *** (*** = 80-100 percent control) | *** (*** = 80-100 percent control) | – | –
CC(C)OC(=O)c1cnc(Oc2ccc(CCNc3ncnc4nccnc34)cc2)c(Cl)c1 [Compound 164] | *** (*** = 80-100 percent control) | ** (** = 50-79 percent control) | – | –
CC(C)(C)OC(=O)c1ccc(Oc2ccc(CCNc3ncnc4nccnc34)cc2)nc1 [Compound 165] | *** (*** = 80-100 percent control) | *** (*** = 80-100 percent control) | – | –
Cc1cc(CCNc2ncnc3nccnc23)ccc1Oc1c(F)cnc(C(F)(F)F)c1F [Compound 166] | *** (*** = 80-100 percent control) | *** (*** = 80-100 percent control) | – | –
COc1cc(C(F)(F)F)cc(Oc2ccc(CCNc3ncnc4nccnc34)cc2C)n1 [Compound 167] | *** (*** = 80-100 percent control) | ** (** = 50-79 percent control) | – | –
COc1cc(C(F)(F)F)cc(Oc2ccc(OCCNc3ncnc4nccnc34)cc2)n1 [Compound 168] | *** (*** = 80-100 percent control) | ** (** = 50-79 percent control) | – | –
Cc1cc(CCNc2ncnc3nccnc23)ccc1Oc1cc(C(C)(F)F)ccn1 [Compound 169] | *** (*** = 80-100 percent control) | *** (*** = 80-100 percent control) | – | –
COc1cc(CCNc2ncnc3nccnc23)ccc1Oc1cc(C(C)(F)F)ccn1 [Compound 170, (2-{4-[4-(1,1-difluoroethyl)-pyridin-2-yloxy]-3-methoxyphenyl}-ethyl)-pteridin-4-yl-amine] | *** (*** = 80-100 percent control) | ** (** = 50-79 percent control) | – | –
COc1cc(C(F)(F)F)cc(Oc2ccc(CCNc3ncnc4nccnc34)cc2)n1 [Compound 171] | *** (*** = 80-100 percent control) | ** (** = 50-79 percent control) | – | –
CC(C)(C)c1cc[n+]([O-])c(Oc2ccc(CCNc3ncnc4nccnc34)cc2)c1 [Compound 172, {2-[4-(4-tert-Butyl-1-oxypyridin-2-yloxy)-phenyl]-ethyl}-pteridin-4-ylamine] | *** (*** = 80-100 percent control) | * (* = 0-49 percent control) | – | –
CC(C)OC(=O)c1ccnc(Oc2ccc(CCNc3ncnc4nccnc34)cc2)c1 [Compound 173] | *** (*** = 80-100 percent control) | * (* = 0-49 percent control) | – | –
Cc1cc(CCNc2ncnc3nccnc23)ccc1O [Compound 174] | ** (** = 50-79 percent control) | ** (** = 50-79 percent control) | – | –
Cc1c(O)ccc(CCNc2ncnc3nccnc23)c1C [Compound 175] | *** (*** = 80-100 percent control) | * (* = 0-49 percent control) | – | –
COc1ccc(CCNc2ncnc3nccnc23)cc1F [Compound 176] | *** (*** = 80-100 percent control) | * (* = 0-49 percent control) | – | –
Oc1ccc(CCNc2ncnc3nccnc23)cc1F [Compound 177] | * (* = 0-49 percent control) | * (* = 0-49 percent control) | – | –
COc1cc(C(F)(F)F)cc(Oc2ccc(CCNc3ncnc4nccnc34)cc2OC)n1 [Compound 178] | *** (*** = 80-100 percent control) | ** (** = 50-79 percent control) | – | –
COc1cc(C(F)(F)F)cc(Oc2cc(C)c(CCNc3ncnc4nccnc34)cc2C)n1 [Compound 179] | *** (*** = 80-100 percent control) | * (* = 0-49 percent control) | – | –
CC(C)Oc1cc(CCNc2ncnc3nccnc23)ccc1Oc1cc(C(F)(F)F)ccn1 [Compound 180, {2-[3-(Isopropoxy)-4-(4-trifluoromethyl-pyridin-2-yloxy)-phenyl]-ethyl}-pteridin-4-ylamine] | *** (*** = 80-100 percent control) | ** (** = 50-79 percent control) | – | –
COc1cc(CCNc2ncnc3nccnc23)cc(OC)c1O [Compound 181] | ** (** = 50-79 percent control) | * (* = 0-49 percent control) | – | –
CC(C)(C)COC(=O)c1ccnc(Oc2ccc(CCNc3ncnc4nccnc34)cc2)c1 [Compound 182] | *** (*** = 80-100 percent control) | * (* = 0-49 percent control) | – | –
CCOC(=O)c1ccnc(Oc2ccc(CCNc3ncnc4nccnc34)cc2)c1 [Compound 183] | *** (*** = 80-100 percent control) | ** (** = 50-79 percent control) | – | –

Structure (SMILES) | PUCCRT percent control ([1]; in vivo) | LEPTNO percent control (Leptosphaeria nodorum; in vivo) | PUCCRT percent control ([1]; foliar spray) | LEPTNO percent control (Leptosphaeria nodorum; foliar spray)
CC(F)(F)c1cc[n+]([O-])c(Oc2ccc(CCNc3ncnc4nccnc34)cc2)c1 [Compound 184, (2-{4-[4-(1,1-difluoroethyl)-1-oxy-pyridin-2-yloxy]-phenyl}-ethyl)-pteridin-4-yl-amine] | *** (*** = 80-100 percent control) | ** (** = 50-79 percent control) | – | –
COc1cc(C(F)(F)F)cc(Oc2ccc(CCNc3ncnc4nccnc34)cc2F)n1 [Compound 185] | *** (*** = 80-100 percent control) | ** (** = 50-79 percent control) | – | –
COc1cc(CCNc2ncnc3nccnc23)cc(OC)c1Oc1cc(C(F)(F)F)ccn1 [Compound 186] | *** (*** = 80-100 percent control) | ** (** = 50-79 percent control) | – | –
FC(F)(F)c1ccnc(Oc2ccc(CCNc3ncnc4nccnc34)cc2Cl)c1 [Compound 187] | *** (*** = 80-100 percent control) | *** (*** = 80-100 percent control) | – | –
CCCOc1cc(CCNc2ncnc3nccnc23)ccc1Oc1cc(C(F)(F)F)ccn1 [Compound 188] | *** (*** = 80-100 percent control) | * (* = 0-49 percent control) | – | –
CCOc1cc(CCNc2ncnc3nccnc23)ccc1Oc1cc(C(C)(F)F)ccn1 [Compound 189] | *** (*** = 80-100 percent control) | ** (** = 50-79 percent control) | – | –
CC(=O)Oc1cc(CCNc2ncnc3nccnc23)ccc1Oc1cc(C(F)(F)F)ccn1 [Compound 190, Acetic acid 5-[2-(pteridin-4-ylamino)-ethyl]-2-(4-trifluoromethylpyridin-2-yloxy)-phenyl ester] | *** (*** = 80-100 percent control) | * (* = 0-49 percent control) | – | –
COc1cc(C(C)(F)F)cc(Oc2ccc(CCNc3ncnc4nccnc34)cc2)n1 [Compound 191, (2-{4-[4-(1,1-Difluoroethyl)-6-methoxypyridin-2-yloxy]-phenyl}-ethyl)-pteridin-4-yl-amine] | *** (*** = 80-100 percent control) | ** (** = 50-79 percent control) | – | –
CC(C)(C)OC(=O)c1ccnc(Oc2ccc(CCNc3ncnc4nccnc34)cc2)c1 [Compound 192] | *** (*** = 80-100 percent control) | ** (** = 50-79 percent control) | – | –
CC(F)(F)c1ccnc(Oc2ccc(CCNc3ncnc4nccnc34)cc2F)c1 [Compound 193] | *** (*** = 80-100 percent control) | ** (** = 50-79 percent control) | – | –
Cc1cc(Oc2cc(C(C)(F)F)ccn2)c(C)cc1CCNc1ncnc2nccnc12 [Compound 194] | *** (*** = 80-100 percent control) | ** (** = 50-79 percent control) | – | –
CC(C)Oc1cc(CCNc2ncnc3nccnc23)ccc1Oc1cc(C(C)(F)F)ccn1 [Compound 195] | *** (*** = 80-100 percent control) | * (* = 0-49 percent control) | – | –
CC(=O)Oc1cc(CCNc2ncnc3nccnc23)ccc1Oc1cc(C(C)(F)F)ccn1 [Compound 196] | *** (*** = 80-100 percent control) | * (* = 0-49 percent control) | – | –
CC(F)(F)c1ccnc(Oc2ccc(CCNc3ncnc4nccnc34)cc2O)c1 [Compound 197, 2-[4-(1,1-Difluoroethyl)-pyridin-2-yloxy]-5-[2-(pteridin-4-ylamino)-ethyl]-phenol] | *** (*** = 80-100 percent control) | * (* = 0-49 percent control) | – | –
COc1cc(C(F)(F)F)cc(Oc2ccc(CCNc3ncnc4nc(C)c(C)nc34)cc2)n1 [Compound 198] | *** (*** = 80-100 percent control) | ** (** = 50-79 percent control) | – | –
CCCOc1cc(CCNc2ncnc3nccnc23)ccc1Oc1cc(C(C)(F)F)ccn1 [Compound 199] | *** (*** = 80-100 percent control) | ** (** = 50-79 percent control) | – | –
Cc1nc2ncnc(NCCc3ccc(Oc4ncccc4C(F)(F)F)cc3)c2nc1C [Compound 200] | – | – | *** (*** = 80-100 percent control) | ** (** = 50-79 percent control)
Cc1cc(Oc2cc(C(F)(F)F)ccn2)ccc1OCCNc1ncnc2nccnc12 [Compound 201] | – | – | *** (*** = 80-100 percent control) | ** (** = 50-79 percent control)
COC(=O)c1cnc(Oc2ccc(CCNc3ncnc4nccnc34)cc2)cc1C(F)(F)F [Compound 202] | – | – | *** (*** = 80-100 percent control) | *** (*** = 80-100 percent control)
CC(C)c1ccnc(Oc2ccc(CCNc3ncnc4nccnc34)cc2)c1 [Compound 203] | – | – | *** (*** = 80-100 percent control) | ** (** = 50-79 percent control)
COc1cc(CCNc2ncnc3nccnc23)ccc1Oc1cc(C(C)C)ccn1 [Compound 204] | – | – | *** (*** = 80-100 percent control) | * (* = 0-49 percent control)
CCOc1cc(CCNc2ncnc3nccnc23)ccc1Oc1cc(C(C)C)ccn1 [Compound 205] | – | – | *** (*** = 80-100 percent control) | ** (** = 50-79 percent control)
